The supplement of paper PMC11417369
The other results are listed elsewhere or left out.

test system: PfAP2-HC AP2 domain (GST-tagged); test: gcPBM binding intensity (ln(normalized median fluorescence intensity)); higher = stronger DNA binding
How it was run: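 For binding intensity, the highest Masliner-normalised natural-log median intensity across replicate spots of either probe orientation was taken. Protein bound to the array was stained with Alexa488 anti-GST antibody and scanned at 488 nm. The protein, GST-tagged P. falciparum DNA-binding domains from E. coli at about 25 μg on average, had been applied for 1 h to an Agilent 4 × 180k array of primer-extended double-stranded 36-bp intergenic genomic probes and negative controls.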

Sequence	gcPBM binding intensity (ln)
AAAAAAACATAAAATACACACAACCTTAAGAATGTA [CACACA_site3293]	10.1
TTATAAAATATATATACATGCACAAAATTATAAGTA [TGCATGCA_site294]	9.83
AATCAACATTTTTTTTGCTATTTTTTTTTTTAATTA [CACACA_negctrl_site891]	9.64
GACAATATTAAAACATGTACATGCATTTTATGAATA [XGTACX_site553]	9.65
TATAATATAAAATATGCACACATTGGAATGGGAGAA [CACACA_site3746]	10.1
TATTGTAAAGTGTCATTATTACGTTATATTATATAT [CACACA_negctrl_site98]	9.76
TAAAAAAAAGGAAATACATGCATCTACATATATATA [TGCATGCA_site500]	9.52
ATATATTTCATTTTTGTACACACAACGTTGGAGGGT [CACACA_site8999]	9.94
AAAAAAAAAATATATATATATATATAATATATATAT [TGCATGCA_negctrl_site329]	9.43
ATATAGGTAATAATAATACACACGGTGAAATATAGA [CACACA_site4040]	10
AAAAACTAACTGTATTGTACTCTCTTATAAATTCAC [XGTACX_site8967]	9.65
TATAATTTAAAATACACACACATATATATAATATAT [CACACA_site2000]	10.1
TAAATACATTTATATACACACCTATATATATATATA [CACACA_site5137]	9.72
TCCAAATGAAAAAATTGTACATATTTTATCATATAT [XGTACX_site6159]	9.58
ATAAGAAATTTCATACGTACATAAATAAATATATAT [XGTACX_site2932]	9.7
ATATAAGTATACACATGTACATATTTCTTATGTATA [XGTACX_site2854]	9.74
GTATGATGTGAACATTGTACGAATGAATATATCTAA [XGTACX_site3789]	9.55
TATAAAGACACGTACACACACTAAGTATATCCAATA [CACACA_site6855]	10.5
AAAAAATTTATAAAAGCACACAAAATAAAAAAAAAT [CACACA_site8420]	9.78

Sequence	gcPBM binding intensity (ln)
AAAATGTTAAATATTAAATATGAAACAAAAAAAAAA [GTGCAC_negctrl_site211]	9.64
AATAAAATATAAACATTATATATATATATATATATA [GTGCAC_negctrl_site58]	9.44
ATTTTTTCTTTTTTTTTTCCGTTTTTTTGGACATTT [CACACA_negctrl_site1174]	9.75
TAAAGGAGCCTATGAACACACACATGTACTTATATT [CACACA_site9351]	10.2
AATTGTTTGTTTGGGTGTACATGGTTCTATATAAAT [XGTACX_site7940]	10.3
ATAAAAAATAAATAAGGTACAGAACATTTATACATT [XGTACX_site1783]	9.77
AAATTAAACAATAAATGTACATATATATTTGTATAT [XGTACX_site1092]	9.68
AACAAGGTATTAGGGTGTACTATATATATTTATATT [XGTACX_site7776]	9.82
TTTATTACCATATTTTGTACACACATCTTTATCTCA [XGTACX_site6842]	10.5
CTTTTATTGCTCTATATGCACACCTTAATTCTTCAT [CACACA_site2195]	10.1
AATGGGTTAGCACATACACACCAATATATTATAGAT [CACACA_site7444]	9.93
GCAAAATTTCCTAAGGTGCTTTTATTTTACACCGTT [GTGCAC_site9923]	9.78
AAAACCTAAAAGTCTTAAATTTTAAATATACCTACA [GTGCAC_negctrl_site492]	9.5
TAATTTGAACGGTACAGTACTCTTTTTCTTTTTCAT [XGTACX_site5534]	9.62
ATATATTTTTTCAATTGTACGTTTTAATAATATTTA [XGTACX_site2130]	9.66
AATACAACATAATGAAGTACTGTATTTTATATTACT [XGTACX_site4885]	9.75
ATGAAATCTTTAGAATATAGATGATGTTATTTAATT [XGTACX_negctrl_site511]	9.41
TTTCTTTGAATAAATACACACGAGAAATGAAAGTAG [CACACA_site8490]	9.73
ACTCTATACATCTAATGTACATGGAAAAAAAAATTC [XGTACX_site733]	9.48

Sequence	gcPBM binding intensity (ln)
ATTAAAATGGTATGTGCGCACATAATATATATATGT [GTGCAC_site9572]	10.2
ATATAAATGATATGTACACACATTTATATTTATAAA [CACACA_site7600]	9.73
ACATTGACATGTCGAAGTACTCAAGAAGCATACAAT [XGTACX_site3948]	9.73
TTCTTACATAAAATATCACACACATAAAAAAACAAT [CACACA_site8576]	10.4
GTAATAAGAATTATAGTGCAATGTAATACATTTATA	9.68
TGGAAAATTATTAACACACACATATAAATATATATA [CACACA_site46]	10.2
TATATTATCAAAATGGTGCAATAATTTCTATATTAT [GTGCAC_site9772]	9.49
AAAAGAAATAAGGATACACACTATTGATAAAAGTAG [CACACA_site4309]	9.88
TCGTGGGAAAATATTACACACATTTACTATAGTATC [CACACA_site5836]	10.1
TATTACAAATAATACCGTACACAAATGTTTTTTTAT [XGTACX_site7977]	9.59
CTTGGGAAGTATTCAGTGCAAAATATAAGCAGGTCA [GTGCAC_site9758]	9.61
TGGATAATCAAAAATTGTACAAGTGTTGTTATTGGT [XGTACX_site8010]	9.69
ACCGGTGGAACGTTTTGTACATATATAATAATATAT [XGTACX_site2143]	9.73
ATATATATATTGAAAAGTACATATATATATATATTA [XGTACX_site1560]	9.47
TTTTTTTTTATATATACACACAATAAATAAATATAA [CACACA_site2954]	9.43
TACATAAATACATACATACACACATATATATATATA [CACACA_site2105]	9.87
GGTTAAAAAAAGCATACACACTATCCTCTTTGCTCT [CACACA_site7246]	10.1
CTTTTTTATTTTTCAACACACATAATAAATTTCTAT [CACACA_site1037]	9.82
